Measured values taken from the antibiotic and cytotoxicity screens of Wong et al. (2023).
Some of the results follow.

These molecules were tested on S. aureus RN4220 (assay: growth inhibition call (relative growth <= 0.2)). Conditions: 50 µM.

Growth inhibition call, inactive:
C[C@@H]1CN([C@@H](C)CO)C(=O)c2cccc(NC(=O)Nc3ccc(F)cc3)c2O[C@H]1CN(C)C(=O)Nc1cccc2ccccc12
C[C@H](CO)N1C[C@H](C)[C@@H](CN(C)Cc2ccc(C(F)(F)F)cc2)Oc2ccc(NC(=O)Cn3cnnn3)cc2C1=O
O=C(C[C@H]1C[C@H]2c3cc(NC(=O)Cc4ccncc4)ccc3O[C@H]2[C@@H](CO)O1)NCCc1ccccc1
CCCC(=O)Nc1ccc2c(c1)C(=O)N(C)[C@@H]1CC[C@@H](CC(=O)NCCN3CCCCC3)O[C@@H]1CO2
O=C(NCC[C@H]1CC[C@@H](NS(=O)(=O)c2cccc(F)c2)[C@@H](CO)O1)C1CC1
Cc1ccc(S(=O)(=O)N(C)C[C@@H]2Oc3ccc(NC(=O)Nc4cccc5ccccc45)cc3C(=O)N([C@@H](C)CO)C[C@H]2C)cc1
CC(C)NC(=O)N(C)C[C@@H]1Oc2ccc(NS(=O)(=O)c3cccs3)cc2C(=O)N([C@@H](C)CO)C[C@H]1C
Cc1noc(C)c1S(=O)(=O)N(C)C[C@H]1Oc2ccc(N(C)C)cc2CC(=O)N([C@@H](C)CO)C[C@@H]1C
COCOc1ccc2cc(Br)ccc2c1-c1c(OCOC)ccc2cc(Br)ccc12
C[C@H](CO)N1C[C@H](C)[C@H](CN(C)C(=O)Nc2ccc(C(F)(F)F)cc2)Oc2c(NC(=O)C3CCCCC3)cccc2C1=O
Cc1noc(C)c1S(=O)(=O)N(C)C[C@H]1Oc2ccc(NS(C)(=O)=O)cc2CC(=O)N([C@H](C)CO)C[C@@H]1C
